# From PubChem BioAssay (NCATS)
# Several values for one entry are separate records, joined by “and”; a condition that tells them apart may be missing. Equal values may be shown once. This list was built around the results that the source calls inconclusive (neither active nor inactive); the mix of calls is not that of the screen. For part of these data: Potencies of inconclusive entries are doubtful fits and often do not repeat. Some structures have more than one record in an assay (separate samples or runs), and their calls can disagree. Activity calls are given as the source filed them. Calls come from the whole dose curve; as a rule, active = well fitted curve in the direction sought with a large enough effect; inconclusive = small, poorly fitted or top-dose-only effect, or another doubt; inactive = no such curve, though single readings can be large; an effect the other way counts as inactive or inconclusive.
# Experiments:
# HeLa = assay: Primary qHTS to identify gynecologic anti-cancer compounds using libraries of approved drugs and bioactive compounds (AID 1345084); conditions: Gynecologic cancer cell panel viability, ATPlite luminescence, 48 h; series mostly up to 57.5 µM; note: nearly all actives have a fitted effect of over 55% in size
# Summary of the method: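 48 h compound exposure at 37 C, 5% CO2; five-point qHTS. ATPlite luminescence readout of cell ATP.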
# [1] = qHTS of pediatric cancer cell lines to identify multiple opportunities for drug repurposing: Primary screen for SJ-GBM2 cells (AID 1347091)
# Summary of the method: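 Viability measured as metabolically active cells via CellTiter-Glo luminescence following 48 hours of compound exposure, 11-point dilutions in confirmatory testing. 500-1,000 cells/well plated 5 hours before dosing; controls were DMSO and 2.3 µM bortezomib.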
# [2] = qHTS of pediatric cancer cell lines to identify multiple opportunities for drug repurposing: Primary screen for TC32 cells (AID 1347089); note: nearly all actives have a fitted effect of over 60% in size
# Summary of the method: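 Luminescent ATP read-out (CellTiter-Glo) of metabolically active TC32 cells after 48 h exposure. Concentration-response curves came from 11-point (MIPE, 0.78 nM–46 µM) or 8-point (NPC, 0.59 nM–46 µM) primary titrations; follow-up used 11 points.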
# [3] = qHTS of pediatric cancer cell lines to identify multiple opportunities for drug repurposing: Primary screen for LAN-5 cells (AID 1347100)
# Summary of the method: (§1)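 Viability after 48 h compound treatment at 37C, 500-1,000 cells/well, read as ATP luminescence with CellTiter-Glo. Primary screens used 11-point (MIPE, 0.78 nM-46 µM) or 8-point (NPC, 0.59 nM-46 µM) final concentrations; follow-up screens used 11-point dilutions.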
# [4] = target: Glutathione peroxidase 1 (Homo sapiens) (UniProt P07203); assay: Primary qHTS Assay for Inhibitors of Recombinant Selenoprotein Glutathione Peroxidase 1 (GPX1) (AID 1845191); conditions: activity, negative = inhibition: at 48.8 µM (top of the series); note: nearly all actives have a fitted effect of over 65% in size
# Chain of UniProt P07203 (P07203 whole entry, looked up): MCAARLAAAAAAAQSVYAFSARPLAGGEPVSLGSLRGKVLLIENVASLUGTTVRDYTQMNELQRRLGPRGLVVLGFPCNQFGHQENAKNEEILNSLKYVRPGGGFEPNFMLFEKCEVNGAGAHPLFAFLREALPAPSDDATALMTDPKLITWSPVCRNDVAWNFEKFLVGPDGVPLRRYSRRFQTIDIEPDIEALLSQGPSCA
# Summary of the method: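 GR-coupled assay: compounds preincubated 30 min at room temperature with GPX1, then reaction started with CHP; final 10 nM GPX1, 1 mM GSH, 0.5 mM CHP, 0.5 mM NADPH, 100 nM GR, 0.01% BSA, pH 7.5 Tris buffer. NADPH fluorescence (340/450 nm) read at 0 and 15 min.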
# [5] = NS1 protein of Zika virus - qHTS assay to identify small molecule inhibitors in human HEK 293 cells (AID 1347053); note: nearly all actives have a fitted effect of over 55% in size
# Summary of the method: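 Inhibition of NS1 expression was scored in HEK 293 cells given compound 1 h ahead of MR766 virus (MOI = 0.5). Following 24 h at 37 C, two anti-NS1 antibodies generated a TR-FRET signal, scaled between uninfected and infected controls.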
# [6] = qHTS of pediatric cancer cell lines to identify multiple opportunities for drug repurposing: Primary screen for Rh18 cells (AID 1347102); note: nearly all actives have a fitted effect of over 65% in size
# Summary of the method: as §1
# [7] = qHTS of pediatric cancer cell lines to identify multiple opportunities for drug repurposing: Primary screen for Rh41 cells (AID 1347108); note: nearly all actives have a fitted effect of over 70% in size
# Summary of the method: (§2)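 500-1,000 cells/well; 5 h pre-incubation 37 °C/5% CO2; compound pinned; 48 h; CellTiter-Glo, 15 min RT; luminescence. MIPE 11-pt from 0.78 nM, NPC 8-pt from 0.59 nM final. Bortezomib 2.3 µM final as positive control.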
# [8] = Quantitative High-Throughput drug screen in 47 multiple myeloma cell lines against the NCATS MIPE library collection: Karpas417_ECACC cell viability assay (AID 1918961); conditions: Karpas417 myeloma viability, CellTiter-Glo ATP luminescence, 48 h; viability (% of DMSO): at 45.8 µM (top of the series)
# Summary of the method: (§3)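 Myeloma cell lines, 500 cells per well, exposed to MIPE 4.0 library compounds for 48 h at 37C, 5% CO2. Viability from ATP by CellTiter-Glo luminescence; normalised to DMSO (100%) and media-only (0%) wells.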
# [9] = Quantitative High-Throughput drug screen in 47 multiple myeloma cell lines against the NCATS MIPE library collection: KMS21BM_JCRB cell viability assay (AID 1918974); conditions: ATP luminescence, 48 h; viability: at 45.8 µM (top of the series)
# Summary of the method: (§4)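 CellTiter-Glo luminescence (ATP) after 48 h compound exposure, 37C/5% CO2; 500 cells/well; MIPE 4.0 approved/investigational drugs pinned in; DMSO = 100%, media only = 0% viability.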
# [10] = Quantitative High-Throughput drug screen in 47 multiple myeloma cell lines against the NCATS MIPE library collection: MOLP8_DSMZ cell viability assay (AID 1918977); conditions: MOLP8 myeloma viability, CellTiter-Glo ATP luminescence, 48 h; series mostly up to 45.8 µM; note: nearly all actives have a fitted effect of over 45% in size
# Summary of the method: (§5)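 500 cells/well per myeloma line exposed to pinned MIPE 4.0 compounds for 48 h at 37 °C, 5% CO2. Viability read as ATP by CellTiter-Glo luminescence, normalised to DMSO-only (100%) and media-only (0%) wells.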
# [11] = Quantitative High-Throughput drug screen in 47 multiple myeloma cell lines against the NCATS MIPE library collection: LP1_DSMZ cell viability assay (AID 1918982); note: nearly all actives have a fitted effect of over 35% in size
# Summary of the method: as §5
# [12] = Quantitative High-Throughput drug screen in 47 multiple myeloma cell lines against the NCATS MIPE library collection: KMS34_JCRB cell viability assay (AID 1918985); note: nearly all actives have a fitted effect of over 40% in size
# Summary of the method: as §5
# [13] = qHTS of pediatric cancer cell lines to identify multiple opportunities for drug repurposing: Primary screen for NB1643 cells (AID 1347099); note: nearly all actives have a fitted effect of over 50% in size
# Summary of the method: as §2
# [14] = Quantitative High-Throughput drug screen in 47 multiple myeloma cell lines against the NCATS MIPE library collection: KMM1_JCRB cell viability assay (AID 1918960); note: nearly all actives have a fitted effect of over 30% in size
# Summary of the method: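 ATP readout (CellTiter-Glo), 48 h drug incubation, 37 °C/5% CO2, 500 cells per well; normalisation to DMSO (100%) and media-only (0%) controls.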
# [15] = Quantitative High-Throughput drug screen in 47 multiple myeloma cell lines against the NCATS MIPE library collection: KMS12PE_JCRB cell viability assay (AID 1918972); note: nearly all actives have a fitted effect of over 30% in size
# Summary of the method: as §3
# [16] = Quantitative High-Throughput drug screen in 47 multiple myeloma cell lines against the NCATS MIPE library collection: KMS20_JCRB cell viability assay (AID 1918973); conditions: CellTiter-Glo ATP, 48 h; viability (% of DMSO): at 45.8 µM (top of the series); note: nearly all actives have a fitted effect of over 45% in size
# Summary of the method: as §4
# [17] = Quantitative High-Throughput drug screen in 47 multiple myeloma cell lines against the NCATS MIPE library collection: MMM1_PLB cell viability assay (AID 1918976); note: nearly all actives have a fitted effect of over 35% in size
# Summary of the method: as §5
# UISO = assay: qHTS assay to identify novel small-molecules to repurpose for Merkel cell carcinoma treatment (AID 1296009); conditions: MCC and control cell lines, CellTiter-Glo viability, 72 h; series mostly up to 46 µM; note: nearly all actives have a fitted effect of over 60% in size
# Summary of the method: (§6)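 Cells were treated for 72 hr at 37 degree celsius with compounds in 8- or 11-point dose response. Viability was read by CellTiter-Glo luminescence, normalized to no-cell (cytotoxicity) and DMSO controls.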
# WaGa = assay: as above; conditions: MCC and control cell lines, CellTiter-Glo viability, 72 h; series mostly up to 46 µM
# Summary of the method: as §6
# Potency is the fitted concentration of half-maximal effect; tags give direction and shape of the fitted curve.
smiles,measurement,setting,value
Fc1ccc(-c2cncc(CN3CCN(c4cccc5c4OCCO5)CC3)c2)cc1,Potency,HeLa,inactive
OC(CCN1CCCCC1)(c1ccccc1)C1CCCCC1 (stereo not given),Potency,[1],"inconclusive: 6.68 µM [cytotoxic, partial curve]"
O=C(O)C1(C(=O)O)CCC1.[NH2-].[NH2-].[Pt+2],Potency,[2],inactive
same,Potency,[3],inactive
COc1cc2ncc(-c3ccccc3)nc2cc1OC,Potency,[4],"inconclusive: 32.1 µM [inhibitor, single point]"
same,Potency,HeLa,active: 3.55 µM
COc1cc(C#N)ccc1S(=O)(=O)Nc1ccc2c(c1)cc(C)c(=O)n2C,Potency,[4],inactive
NS(=O)(=O)Nc1ncnc(OCCOc2ncc(Br)cn2)c1-c1ccc(Br)cc1,Potency,HeLa,inactive
COC(=O)c1sccc1S(=O)(=O)Nc1ccc(Nc2ccccc2)cc1OC,Potency,[4],inactive
COc1ccccc1O,Potency,[1],inactive
C[C@@H]1COCCN1c1cc(C2(S(C)(=N)=O)CC2)nc(-c2ccnc3[nH]ccc23)n1 (stereo not given in full),Potency,[4],"inconclusive: 29 µM [inhibitor, single point]"
C[C@@H](c1ccc2nccn2c1)n1nnc2ncc(-c3cnn(C)c3)nc21,Potency,[4],"inconclusive: 28.6 µM [inhibitor, partial curve]"
CC(O)(C#Cc1ccc2c(c1)N(c1nc(N)ncc1Cl)CC2)c1nccs1 (stereo not given),Potency,[5],"inconclusive: 37.2 µM [inhibitor, single point]"
same,Potency,[3],"inconclusive: 16.6 µM [cytotoxic, partial curve, poor fit]"
same,Potency,[6],inactive
same,Potency,[7],inactive
same,Potency,[8],active: 4.69 µM
same,Potency,[9],active: 0.332 µM
same,Potency,[10],"inconclusive: 33.2 µM [cytotoxic, single point]"
same,Potency,[11],"inconclusive: 16.6 µM [cytotoxic, partial curve]"
same,Potency,[12],"inconclusive: 16.6 µM [cytotoxic, partial curve]"
NC(=O)c1nc(Nc2ccccc2)sc1NC(=O)C1CCCCC1,Potency,[4],inactive
NCCc1ccc(O)c(O)c1,Potency,[2],"inconclusive: 29.7 µM [cytotoxic, single point]"
same,Potency,[13],"inconclusive: 16.6 µM [cytotoxic, partial curve]"
same,Potency,[3],"inconclusive: 21.1 µM [cytotoxic, partial curve]"
same,Potency,[6],"inconclusive: 16.8 µM [cytotoxic, single point]"
same,Potency,[7],"inconclusive: 23.7 µM [cytotoxic, single point]"
same,Potency,[14],"inconclusive: 0.0118 µM [cytotoxic, full curve, poor fit]"
same,Potency,[8],"inconclusive: 2.64 µM [cytotoxic, partial curve, poor fit]"
same,Potency,[15],active: 20.9 µM
same,Potency,[16],"inconclusive: 16.6 µM [cytotoxic, partial curve]"
same,Potency,[9],"inconclusive: 9.35 µM [cytotoxic, full curve, poor fit]"
same,Potency,[17],active: 7.43 µM
same,Potency,[11],active: 8.33 µM
same,Potency,[12],active: 8.33 µM
same,Potency,UISO,active: 18.8 µM
same,Potency,WaGa,"inconclusive: 26.4 µM [inhibitor, single point] and active: 11.9 µM"
COc1ccc2c(c1)C(=O)N(CCc1ccc(S(=O)(=O)NC(=O)NC3CCCCC3)cc1)C(=O)C2(C)C,Potency,[13],inactive
same,Potency,[4],"inconclusive: 22.7 µM [inhibitor, partial curve]"
NC(=O)N1c2ccccc2CC(=O)c2ccccc21,Potency,[1],"inconclusive: 16.8 µM [cytotoxic, single point]"
same,Potency,[3],inactive
same,Potency,[4],"inconclusive: 9.04 µM [inhibitor, partial curve, poor fit]"
same,Potency,[15],inactive
same,Potency,[16],inactive
same,Potency,[17],"inconclusive: 0.0059 µM [rising, full curve]"
same,Potency,[10],inactive
same,Potency,[11],inactive
same,Potency,[12],inactive
Cc1ccc2nc(NC(=O)CSc3nc4c(c(=O)n3-c3ccccc3)SCC4)sc2c1,Potency,[13],"inconclusive: 11.8 µM [cytotoxic, partial curve]"
same,Potency,[6],"inconclusive: 13.2 µM [cytotoxic, partial curve]"
same,Potency,[14],"inconclusive: 8.33 µM [cytotoxic, full curve]"
same,Potency,[8],active: 23.5 µM
same,Potency,[15],"inconclusive: 5.9 µM [cytotoxic, full curve]"
same,Potency,[16],"inconclusive: 14.8 µM [cytotoxic, partial curve, poor fit]"
same,Potency,[9],active: 11.8 µM
same,Potency,[17],"inconclusive: 7.43 µM [cytotoxic, partial curve, poor fit]"
same,Potency,[10],"inconclusive: 20.9 µM [cytotoxic, partial curve]"
same,Potency,[12],"inconclusive: 16.6 µM [cytotoxic, partial curve, poor fit]"
same,Potency,UISO,"inconclusive: 20.9 µM [inhibitor, single point]"
same,Potency,WaGa,"inconclusive: 5.9 µM [inhibitor, partial curve]"
